Laboratory results from the supplement of paper PMC10126150.
Values marked as one replicate rest on one cluster of the flow cell; about a third of the high ones do not repeat.

Tested on: ATP
Assay: switch fluorescence ratio, 500 uM ATP over buffer (Cy3 cluster intensity, sum of 5 cycles each) (fold (ratio)); higher = stronger signal-on switching upon ATP binding; sequences stand for … in TCGTCGGCAGCGTCAGATGTGTATAAGAGACAGTTTTTTTTTTTTTTTTTTTTTTTTT…TC
Details: aptamer strand: ATP DNA aptamer (quencher-CACCTGGGGGAGTATTGCGGAGGAAGG + anchor), 100 nM annealed; ATP concentration: 500 uM; one replicate
How it was run: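 Clusters carrying Cy3-labelled switching strands on a modified Illumina MiSeq flow-cell were annealed to 100 nM quencher-labelled ATP aptamer and imaged in selection buffer. They were imaged again after 15 min with 500 uM ATP at 22 °C, over five buffer/ATP cycles with NaOH stripping and re-annealing in between. For each cluster, the fluorescence ratio is the summed Cy3 intensity of the target cycles divided by that of the buffer cycles, averaged per switch-domain sequence. Clusters outside 100-1000 RFU were left out.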
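Further: ATP exposure 15 min at 22 °C before imaging.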

**Q.** With ATGTCCCCAT as the sequence, how does the switch fluorescence ratio read?
**A.** 1.02

**Q.** For ATGTCCTTGT, which switch fluorescence ratio is on record?
**A.** 0.993

**Q.** With ATGTCGCCCG as the sequence, how does the switch fluorescence ratio read?
**A.** 0.985

**Q.** For ATGTCTACAA, which switch fluorescence ratio is on record?
**A.** 0.945

**Q.** For ATGTCTAGAG, which switch fluorescence ratio is on record?
**A.** 0.967

**Q.** With ATGTGAAGGT as the sequence, how does the switch fluorescence ratio read?
**A.** 1.04

**Q.** Which switch fluorescence ratio does the source give for ATGTGACCTT here?
**A.** 1.16

**Q.** How did the switch fluorescence ratio turn out when ATGTGAGTCT was run?
**A.** 1.04

**Q.** For ATGTGATCG, which switch fluorescence ratio is on record?
**A.** 1.03

**Q.** ATGTGGCAAT was tested. Which switch fluorescence ratio did it give?
**A.** 1.19

**Q.** How did the switch fluorescence ratio turn out when ATGTGGCATC was run?
**A.** 0.996

**Q.** Which switch fluorescence ratio does the source give for ATGTGGCGGT here?
**A.** 0.98

**Q.** ATGTGGTGG was tested. Which switch fluorescence ratio did it give?
**A.** 0.958

**Q.** With ATGTGTCTGA as the sequence, how does the switch fluorescence ratio read?
**A.** 1

**Q.** ATGTGTGCAG was tested. Which switch fluorescence ratio did it give?
**A.** 0.949

**Q.** For ATGTGTGGAT, which switch fluorescence ratio is on record?
**A.** 0.981

**Q.** Which switch fluorescence ratio does the source give for ATGTGTTAAA here?
**A.** 1.01

**Q.** With ATGTTACGTA as the sequence, how does the switch fluorescence ratio read?
**A.** 1.05

**Q.** Which switch fluorescence ratio does the source give for ATGTTATATA here?
**A.** 0.989

**Q.** How did the switch fluorescence ratio turn out when ATGTTCCACC was run?
**A.** 1.06

**Q.** ATGTTCCTCT was tested. Which switch fluorescence ratio did it give?
**A.** 1.07

**Q.** Which switch fluorescence ratio does the source give for ATGTTGACAC here?
**A.** 1.02

**Q.** How did the switch fluorescence ratio turn out when ATGTTGCAGC was run?
**A.** 0.966

**Q.** Which switch fluorescence ratio does the source give for ATGTTGCGTA here?
**A.** 0.95

**Q.** How did the switch fluorescence ratio turn out when ATGTTGGATG was run?
**A.** 1.02

**Q.** Which switch fluorescence ratio does the source give for ATGTTGGCTG here?
**A.** 1.01

**Q.** Which switch fluorescence ratio does the source give for ATGTTGGGCC here?
**A.** 0.97

**Q.** ATGTTGGTCT was tested. Which switch fluorescence ratio did it give?
**A.** 0.955

**Q.** ATGTTGTGAG was tested. Which switch fluorescence ratio did it give?
**A.** 0.957

**Q.** With ATGTTTCAT as the sequence, how does the switch fluorescence ratio read?
**A.** 0.951

**Q.** How did the switch fluorescence ratio turn out when ATGTTTGAAT was run?
**A.** 0.998

**Q.** For ATTAAAACAC, which switch fluorescence ratio is on record?
**A.** 1.12

**Q.** Which switch fluorescence ratio does the source give for ATTAAACTGT here?
**A.** 1

**Q.** With ATTAAAGAAG as the sequence, how does the switch fluorescence ratio read?
**A.** 0.988

**Q.** Which switch fluorescence ratio does the source give for ATTAAGAAT here?
**A.** 0.98

**Q.** For ATTAAGCCTA, which switch fluorescence ratio is on record?
**A.** 1.02

**Q.** ATTAAGGACT was tested. Which switch fluorescence ratio did it give?
**A.** 1.01

**Q.** How did the switch fluorescence ratio turn out when ATTAAGTAGT was run?
**A.** 1

**Q.** How did the switch fluorescence ratio turn out when ATTAATAAGT was run?
**A.** 0.957

**Q.** With ATTAATACCC as the sequence, how does the switch fluorescence ratio read?
**A.** 1.02

**Q.** How did the switch fluorescence ratio turn out when ATTAATGGGC was run?
**A.** 0.999

**Q.** Which switch fluorescence ratio does the source give for ATTAATGTCT here?
**A.** 0.944

**Q.** How did the switch fluorescence ratio turn out when ATTAATGTGC was run?
**A.** 1.03

**Q.** ATTACAGATG was tested. Which switch fluorescence ratio did it give?
**A.** 1.04

**Q.** With ATTACAGCTA as the sequence, how does the switch fluorescence ratio read?
**A.** 1.15

**Q.** For ATTACATAGA, which switch fluorescence ratio is on record?
**A.** 1.04

**Q.** ATTACATGTG was tested. Which switch fluorescence ratio did it give?
**A.** 0.987

**Q.** For ATTACCATCA, which switch fluorescence ratio is on record?
**A.** 1.05

**Q.** Which switch fluorescence ratio does the source give for ATTACCATGT here?
**A.** 1

**Q.** How did the switch fluorescence ratio turn out when ATTACCCCTG was run?
**A.** 1.15

**Q.** How did the switch fluorescence ratio turn out when ATTACCGGTG was run?
**A.** 1.06

**Q.** For ATTACCGGTT, which switch fluorescence ratio is on record?
**A.** 0.947

**Q.** ATTACGACGA was tested. Which switch fluorescence ratio did it give?
**A.** 1.15

**Q.** With ATTACGGTCG as the sequence, how does the switch fluorescence ratio read?
**A.** 1.06

**Q.** ATTACGGTTG was tested. Which switch fluorescence ratio did it give?
**A.** 1.05

**Q.** How did the switch fluorescence ratio turn out when ATTACGTGTT was run?
**A.** 0.998

**Q.** For ATTACGTTAA, which switch fluorescence ratio is on record?
**A.** 1.25

**Q.** With ATTAGAGCTA as the sequence, how does the switch fluorescence ratio read?
**A.** 1.03

**Q.** For ATTAGATATG, which switch fluorescence ratio is on record?
**A.** 0.968

**Q.** ATTAGCAACA was tested. Which switch fluorescence ratio did it give?
**A.** 1.1

**Q.** With ATTAGCCCAT as the sequence, how does the switch fluorescence ratio read?
**A.** 1.03

**Q.** Which switch fluorescence ratio does the source give for ATTAGGAGG here?
**A.** 0.966

**Q.** ATTAGGGATT was tested. Which switch fluorescence ratio did it give?
**A.** 0.976

**Q.** ATTAGGGCGT was tested. Which switch fluorescence ratio did it give?
**A.** 1.02

**Q.** For ATTAGGGCTC, which switch fluorescence ratio is on record?
**A.** 0.99

**Q.** For ATTAGGGGTA, which switch fluorescence ratio is on record?
**A.** 1.01

**Q.** With ATTAGGGGTG as the sequence, how does the switch fluorescence ratio read?
**A.** 1.11

**Q.** For ATTAGGGTGC, which switch fluorescence ratio is on record?
**A.** 1.05

**Q.** Which switch fluorescence ratio does the source give for ATTAGGTCTT here?
**A.** 1.04

**Q.** Which switch fluorescence ratio does the source give for ATTAGGTGCT here?
**A.** 1.12

**Q.** ATTAGGTGTG was tested. Which switch fluorescence ratio did it give?
**A.** 0.984

**Q.** With ATTAGTAAGC as the sequence, how does the switch fluorescence ratio read?
**A.** 1.03

**Q.** How did the switch fluorescence ratio turn out when ATTAGTCGTT was run?
**A.** 0.992

**Q.** How did the switch fluorescence ratio turn out when ATTATCCCCA was run?
**A.** 1

**Q.** For ATTATGGAGA, which switch fluorescence ratio is on record?
**A.** 1.01

**Q.** For ATTATGTCAA, which switch fluorescence ratio is on record?
**A.** 1.01

**Q.** How did the switch fluorescence ratio turn out when ATTATGTCTC was run?
**A.** 1.04

**Q.** For ATTATTCGTA, which switch fluorescence ratio is on record?
**A.** 0.995

**Q.** How did the switch fluorescence ratio turn out when ATTATTGGA was run?
**A.** 0.968

**Q.** ATTATTTGGG was tested. Which switch fluorescence ratio did it give?
**A.** 1.01

**Q.** Which switch fluorescence ratio does the source give for ATTCACAAGC here?
**A.** 1.03

**Q.** For ATTCACATT, which switch fluorescence ratio is on record?
**A.** 1.06

**Q.** ATTCACCCTC was tested. Which switch fluorescence ratio did it give?
**A.** 0.997

**Q.** For ATTCACCT, which switch fluorescence ratio is on record?
**A.** 1.2

**Q.** For ATTCACGGGT, which switch fluorescence ratio is on record?
**A.** 1.06

**Q.** With ATTCACTCGA as the sequence, how does the switch fluorescence ratio read?
**A.** 1.03

**Q.** How did the switch fluorescence ratio turn out when ATTCAGGCGT was run?
**A.** 0.986

**Q.** Which switch fluorescence ratio does the source give for ATTCAGTCGG here?
**A.** 0.981

**Q.** ATTCAGTGGG was tested. Which switch fluorescence ratio did it give?
**A.** 0.982

**Q.** For ATTCATCTA, which switch fluorescence ratio is on record?
**A.** 1

**Q.** ATTCATGTA was tested. Which switch fluorescence ratio did it give?
**A.** 1

**Q.** Which switch fluorescence ratio does the source give for ATTCATGTGG here?
**A.** 0.958

**Q.** Which switch fluorescence ratio does the source give for ATTCCCACAG here?
**A.** 2.24

**Q.** How did the switch fluorescence ratio turn out when ATTCCCATAG was run?
**A.** 1.01

**Q.** ATTCCCGGCG was tested. Which switch fluorescence ratio did it give?
**A.** 1.07

**Q.** ATTCCGACTA was tested. Which switch fluorescence ratio did it give?
**A.** 1.66

**Q.** With ATTCCGATAC as the sequence, how does the switch fluorescence ratio read?
**A.** 4.44

**Q.** For ATTCCTACCT, which switch fluorescence ratio is on record?
**A.** 1.36

**Q.** With ATTCCTACTG as the sequence, how does the switch fluorescence ratio read?
**A.** 1.06

**Q.** For ATTCCTGATG, which switch fluorescence ratio is on record?
**A.** 1.01

**Q.** How did the switch fluorescence ratio turn out when ATTCCTTAAG was run?
**A.** 1.01
